This note sets out measurements from PMC6919601, “Identification of Plasmodium dipeptidyl aminopeptidase allosteric inhibitors by high throughput screening” (PLoS ONE, 2019).

Out of some 110,000 compounds screened, about 230 (0.21%) showed an effect of 50% or more. Some of the results follow.
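Also: 30 min substrate incubation versus DMSO and 10 µM JCP410 controls.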

The assay deals with DPAP1 (Plasmodium falciparum, UniProt Q8IIJ9). The experiment in a line: primary screen, percent inhibition; read by cleavage of a fluorogenic dipeptide substrate; higher = more effect of the substance. On the set-up: species or system P. falciparum D10 trophozoite lysates; single well.
Chain of DPAP1 (Q8IIJ9 whole entry, looked up): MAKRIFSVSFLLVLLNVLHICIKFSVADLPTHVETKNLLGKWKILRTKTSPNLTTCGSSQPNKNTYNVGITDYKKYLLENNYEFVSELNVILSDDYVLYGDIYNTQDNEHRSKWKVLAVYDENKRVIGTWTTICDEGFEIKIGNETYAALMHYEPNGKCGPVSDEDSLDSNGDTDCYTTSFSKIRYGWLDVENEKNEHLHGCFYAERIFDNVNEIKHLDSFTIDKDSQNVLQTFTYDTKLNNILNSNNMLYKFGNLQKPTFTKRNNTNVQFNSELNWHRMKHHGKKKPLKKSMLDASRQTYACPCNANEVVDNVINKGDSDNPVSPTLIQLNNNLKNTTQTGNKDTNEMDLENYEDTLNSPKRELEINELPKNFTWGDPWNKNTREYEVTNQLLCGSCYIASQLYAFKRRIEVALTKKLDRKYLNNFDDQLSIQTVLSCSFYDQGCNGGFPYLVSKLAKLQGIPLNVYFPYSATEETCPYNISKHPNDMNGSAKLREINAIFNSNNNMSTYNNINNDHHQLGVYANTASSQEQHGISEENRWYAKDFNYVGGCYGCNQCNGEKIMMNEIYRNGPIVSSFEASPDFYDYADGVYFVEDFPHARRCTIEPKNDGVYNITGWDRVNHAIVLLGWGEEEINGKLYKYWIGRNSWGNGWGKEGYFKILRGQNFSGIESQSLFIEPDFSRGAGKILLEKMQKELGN
As to `CCOC(=O)N1CCN(S(=O)(=O)N2CCCC(C(=O)N3CCCCC3)C2)CC1` (stereo not shown), the “% Inhibition @ 10 uM” value was determined as 0.387%.

As to `Cc1nn(C)c(C)c1NC(=O)c1ccc2ccccc2c1`, the “% Inhibition @ 10 uM” value is recorded as -1.46%.

For `Cc1nn(C)c(C(=O)NC2C3CC4CC(C3)CC2C4)c1Br` (stereo not shown), the “% Inhibition @ 10 uM” value was 0.727%.

As to `Cc1ccc(SCc2cc(=O)n3c4c(sc3n2)CCCC4)cc1`, the “% Inhibition @ 10 uM” value worked out at 0.44%.

As for `Cc1c2cccn2cc[n+]1CC(=O)c1ccccc1`, the “% Inhibition @ 10 uM” value was 1.67%.

On to `CC(C)COc1ccc(C(=O)Nc2nn3c(CC(C)C)nnc3s2)cc1`, for which the “% Inhibition @ 10 uM” value amounted to 0.229%.

Regarding `Cc1nn(CCC(=O)NCCc2cccs2)c(=O)c2nn(-c3ccccc3)c(C)c12`, the “% Inhibition @ 10 uM” value was -11.3%.

For `CCN(CC)CCCNc1ncnc2ccccc12`, the “% Inhibition @ 10 uM” value amounted to 2.46%.

On to `N=C1S/C(=C\c2c[nH]nc2-c2ccc(Cl)cc2)C(=O)N1c1nonc1N`, for which the “% Inhibition @ 10 uM” value came out at 5.12%.

As to `O=[N+]([O-])c1ccc(CN2CCC(N3CCCCC3)CC2)cc1`, the “% Inhibition @ 10 uM” value is reported as -7.34%.

Consider `Cc1cccc(C(=O)Nc2ccc(Cl)cc2)c1`, for which the “% Inhibition @ 10 uM” value is on record as -5.41%.

For the molecule `COc1cc2ncc(C(=O)c3ccc(C)cc3)c(O)c2cc1OC`, the “% Inhibition @ 10 uM” value is -3.48%.

For the molecule `COc1ccc(-c2nc(CSCC(=O)N(C)Cc3ccccc3)c(C)o2)cc1OC`, the “% Inhibition @ 10 uM” value is listed as -2.85%.

Regarding `COc1ccc(-c2nc(CS(=O)(=O)CC(=O)NCCC(C)C)c(C)o2)cc1`, the “% Inhibition @ 10 uM” value was -3.7%.

For `COc1ccc(C(=O)N2CCN(Cc3cccc(F)c3)CC2)cc1OC`, the “% Inhibition @ 10 uM” value was 13.7%.

As to `COC(=O)C1=C(O)/C(=C\c2ccc(-c3cccc(C(F)(F)F)c3)o2)N=C1C`, the “% Inhibition @ 10 uM” value is -0.85%.

Take `CC1=CS(=O)(=O)CC1Sc1nc2ccccc2[nH]1` (stereo not shown): the “% Inhibition @ 10 uM” value was -2.75%.

For `CC1=NN(c2nc(-c3ccccc3)cc(-c3ccc(C)cc3)n2)C(=O)C1`, the “% Inhibition @ 10 uM” value is given as 4.42%.

With `CSCCC1Oc2ccc(Cl)cc2C2CC(c3cc(C)ccc3O)=NN12` (stereo not shown), the “% Inhibition @ 10 uM” value is given as -1.68%.

Regarding `C=C(C)CSC1=C(C#N)C(c2ccccc2)CC(=O)N1` (stereo not shown), the “% Inhibition @ 10 uM” value was -2.35%.

Consider `COc1ccc(CN2CCN(C(=O)c3cccs3)CC2)cc1Br`, for which the “% Inhibition @ 10 uM” value was -4.7%.

As to `Cc1ccc(NC(=O)CSCC(=O)N2CCOCC2)cc1`, the “% Inhibition @ 10 uM” value is 6.63%.

Turning to `Cc1ccc(C)c(OCC(=O)O/N=C(\N)c2ccncc2)c1`, the “% Inhibition @ 10 uM” value is listed as -3.06%.

Take `COc1ccc(C2=N/C(=C\c3ccc(SC)cc3)C(=O)O2)cc1`: the “% Inhibition @ 10 uM” value is on record as -2.72%.

In the case of `CCOc1ccc(N2CC(C(=O)Nc3ccc(Br)c(OC)c3)CC2=O)cc1` (stereo not shown), the “% Inhibition @ 10 uM” value is reported as -1.88%.

In the case of `CC(=O)N1C(c2ccc([N+](=O)[O-])cc2)SC[C@H]1C(=O)O` (stereo partly shown), the “% Inhibition @ 10 uM” value was -2.51%.

Consider `COc1ccc2cc(-c3nc(-c4ccccc4F)no3)c(=O)oc2c1`, for which the “% Inhibition @ 10 uM” value was 5.8%.

Turning to `Cc1cccc(C(=O)NC2CCCCC2NC(=O)c2cccc(C)c2)c1` (stereo not shown), the “% Inhibition @ 10 uM” value came out at 3.65%.

Turning to `CC1CCCCN1CCNC(=O)Cn1ccc2cc(S(=O)(=O)N3CCCCC3)ccc21` (stereo not shown), the “% Inhibition @ 10 uM” value came out at 1.94%.

In the case of `CCc1ccc(CNC(=O)CSCc2ccccc2Cl)cc1`, the “% Inhibition @ 10 uM” value came to 3.79%.

Regarding `COCCCn1c(=N)c(C#N)cc2c(=O)n3ccccc3nc21`, the “% Inhibition @ 10 uM” value is recorded as -5.14%.

In the case of `CC(C)(C)C(=O)Nc1ccc(-c2cnc(-c3ccc(NC(=O)C(C)(C)C)cc3)nc2)cc1`, the “% Inhibition @ 10 uM” value is reported as 4.8%.

As to `CCc1nnc(N2CCN(c3ncnc4c3cnn4Cc3ccc(Cl)cc3Cl)CC2)s1`, the “% Inhibition @ 10 uM” value was determined as 0.51%.

Consider `Cc1cc(C)nc(SCC(=O)Nc2cc(C(F)(F)F)ccc2Cl)n1`, for which the “% Inhibition @ 10 uM” value is recorded as -1.51%.

Turning to `COc1ccc(C(=O)Nc2ccc(N3CCN(S(C)(=O)=O)CC3)cc2)cc1`, the “% Inhibition @ 10 uM” value is recorded as -6.02%.

In the case of `CCn1ccnc1P(=O)(O)c1ccccc1`, the “% Inhibition @ 10 uM” value is -1.29%.

For the molecule `CC(NC(=O)C1CCC(CNS(=O)(=O)c2ccc(Br)s2)CC1)c1ccccc1` (stereo not shown), the “% Inhibition @ 10 uM” value was -0.0508%.

Take `CCC1(CC)OC(c2ccc3c(c2)OCO3)Nc2ccccc21` (stereo not shown): the “% Inhibition @ 10 uM” value is reported as -5.49%.

`CCOC(=O)c1ccc(NC(=O)c2c(C(=O)O)cccc2[N+](=O)[O-])cc1`: the “% Inhibition @ 10 uM” value was -3.98%.

Consider `CC1=C(C(=O)Nc2ccccc2C)C(c2ccc(C(C)C)cc2)n2nc(CCCO)nc2N1` (stereo not shown), for which the “% Inhibition @ 10 uM” value is given as -3.04%.

Turning to `CCOC(=O)c1c(NC(=O)c2cc3ccccc3o2)sc2c1CCC2`, the “% Inhibition @ 10 uM” value turned out to be 3.67%.

In the case of `Cc1cccn2c(=O)c(/C=C(\C#N)C(=O)NCc3ccco3)c(Oc3ccc(Cl)cc3)nc12`, the “% Inhibition @ 10 uM” value turned out to be 2%.

Turning to `CC(NC(=O)c1ccccc1C(=O)O)C12CC3CC(CC(C3)C1)C2` (stereo not shown), the “% Inhibition @ 10 uM” value is recorded as 1.16%.

For the molecule `Cc1sc2nc3c4ccccc4c(NCCCO)nn3c(=O)c2c1C`, the “% Inhibition @ 10 uM” value came to 15%.

In the case of `COc1cc(OC)c(OC)cc1CNC(C)C1COc2ccccc2O1` (stereo not shown), the “% Inhibition @ 10 uM” value was found to be 5.3%.

Take `COc1c(S)cnn(-c2cccc(Cl)c2)c1=O`: the “% Inhibition @ 10 uM” value worked out at 6.72%.

For the molecule `CCC(C)(C)C(=O)Nc1ccc(C(C)=O)cc1`, the “% Inhibition @ 10 uM” value turned out to be 4.56%.

Turning to `O=C(CNC(=S)N(Cc1ccccc1F)C1CCCCC1)NCCCN1CCOCC1`, the “% Inhibition @ 10 uM” value turned out to be 1.27%.

`Cc1ccc(-c2nn(CCC(=O)N3CCCC3)c(=O)c3ccccc23)cc1`: the “% Inhibition @ 10 uM” value is on record as -4.84%.

Turning to `Oc1cccc(-c2nc(-c3ccccc3)c(-c3ccccc3)[nH]2)c1`, the “% Inhibition @ 10 uM” value is listed as 3.32%.

In the case of `COc1ccccc1Nc1nc(N)c2ccccc2n1`, the “% Inhibition @ 10 uM” value is -2.29%.

On to `NS(=O)(=O)c1ccc(CCNC(=O)CSCc2ccc(F)cc2)cc1`, for which the “% Inhibition @ 10 uM” value came to 3.79%.

`CC(=O)N1CCN(Cc2cccc(Oc3ccc(Cl)cc3)c2)CC1`: the “% Inhibition @ 10 uM” value came out at 2.1%.

As for `COC(=O)c1ccc(C2CC(=O)N3C(=C2C#N)SCC3(O)c2ccc(Cl)cc2)cc1` (stereo not shown), the “% Inhibition @ 10 uM” value amounted to 4.8%.

Turning to `Cc1cc(O)c(C2=NCCSC(c3ccc(Cl)c(Cl)c3)C2)c(=O)o1` (stereo not shown), the “% Inhibition @ 10 uM” value stood at 1.66%.

Take `COc1ccc(CC(=O)ONC(=O)c2ccc(Cl)cc2)cc1OC`: the “% Inhibition @ 10 uM” value is given as 6.08%.

With `N#CC1=C(N)Oc2c(c(O)nc3ccccc23)C1c1cccc(C(F)(F)F)c1` (stereo not shown), the “% Inhibition @ 10 uM” value is 1.26%.

In the case of `CCO/C=N\c1cc(C)c(C#N)c2nc3ccccc3n12`, the “% Inhibition @ 10 uM” value is -0.413%.

As for `CCOC(=O)C1CCN(Cc2ccc(-c3ccccc3)cc2)CC1`, the “% Inhibition @ 10 uM” value is listed as -1.86%.

Regarding `Cc1cc(OCC(=O)Nc2cccc(Cl)c2C)cc(C)c1Cl`, the “% Inhibition @ 10 uM” value is recorded as -2.18%.

`COC(=O)C1=C(C)NC(=O)CC1c1ccc(C(F)(F)F)cc1` (stereo not shown): the “% Inhibition @ 10 uM” value is 3.61%.

On to `Cc1ccccc1NC(=O)c1c(NC(=O)CCC(=O)O)sc2c1CCCC2`, for which the “% Inhibition @ 10 uM” value was found to be 17.3%.

For the molecule `CCn1c(-c2ccccc2OC)c(Cl)nc(Cl)c1=O`, the “% Inhibition @ 10 uM” value is reported as -1.98%.

Turning to `O=C(O)CC(NC(=O)CCc1ccccc1)c1ccc2c(c1)OCO2` (stereo not shown), the “% Inhibition @ 10 uM” value is given as -3.07%.
